Source: EPA's CvTdb concentration-time database
Further values from the same series stand in other lists.

Assays:
[1] = tested on: Rat; experiment: concentration in brain after dosing; conditions: 1.5 h; dosed: 2-Methyltetrahydrofuran; 10 mg/kg; oral; Male; F344
[2] = tested on: Rat; experiment: concentration in brain after dosing; conditions: 10 min; dosed: 2-Methyltetrahydrofuran; 100 mg/kg; oral; Female; Harlan Sprague Dawley
[3] = tested on: Rat; experiment: concentration in brain after dosing; conditions: 6 h; dosed: 2-Methyltetrahydrofuran; 400 mg/kg; oral; Male; F344
[4] = tested on: Rat; experiment: concentration in brain after dosing; conditions: 0.75 h; dosed: 2-Methyltetrahydrofuran; 10 mg/kg; oral; Male; F344
[5] = tested on: Rat; experiment: concentration in brain after dosing; conditions: 2 min; dosed: 2-Methyltetrahydrofuran; 10 mg/kg; iv; Male; F344
[6] = tested on: Rat; experiment: concentration in brain after dosing; conditions: 4 h; dosed: 2-Methyltetrahydrofuran; 400 mg/kg; oral; Female; F344
[7] = tested on: Rat; experiment: concentration in brain after dosing; conditions: 8 h; dosed: 2-Methyltetrahydrofuran; 400 mg/kg; oral; Female; Harlan Sprague Dawley
[8] = tested on: Rat; experiment: concentration in plasma after dosing; conditions: 20 min; dosed: 2-Methyltetrahydrofuran; 10 mg/kg; oral; Male; F344
[9] = tested on: Rat; experiment: concentration in plasma after dosing; conditions: 2 min; dosed: 2-Methyltetrahydrofuran; 30 mg/kg; oral; Female; F344
[10] = tested on: Rat; experiment: concentration in plasma after dosing; conditions: 10 min; dosed: 2-Methyltetrahydrofuran; 10 mg/kg; iv; Male; F344
[11] = tested on: Rat; experiment: concentration in plasma after dosing; conditions: 0.75 h; dosed: 2-Methyltetrahydrofuran; 30 mg/kg; oral; Male; F344
[12] = tested on: Rat; experiment: concentration in plasma after dosing; conditions: 1.5 h; dosed: 2-Methyltetrahydrofuran; 10 mg/kg; oral; Female; F344
[13] = tested on: Rat; experiment: concentration in plasma after dosing; conditions: dosed: Bromochloroacetic acid, 100 mg/kg, oral, Male, F344
[14] = tested on: Rat; experiment: concentration in plasma after dosing; conditions: dosed: Bromochloroacetic acid, 40 mg/kg, oral, Male, F344
[15] = tested on: Rat; experiment: concentration in plasma after dosing; conditions: 3 h; dosed: Fluorotelomer alcohol 8+2; 40 mg/kg; oral; Female; Harlan Sprague Dawley
[16] = tested on: Rat; experiment: concentration in plasma after dosing; conditions: dosed: Fluorotelomer alcohol 8+2, 80 mg/kg, oral, Female, Harlan Sprague Dawley
[17] = tested on: Rat; experiment: concentration in plasma after dosing; conditions: 3 h; dosed: Fluorotelomer alcohol 8+2; 80 mg/kg; oral; Female; Harlan Sprague Dawley
[18] = tested on: Rat; experiment: concentration in plasma after dosing; conditions: dosed: Fluorotelomer alcohol 8+2, 48 mg/kg, oral, Male, Harlan Sprague Dawley
[19] = tested on: Rat; experiment: concentration in plasma after dosing; conditions: 3 h; dosed: Fluorotelomer alcohol 8+2; 24 mg/kg; oral; Male; Harlan Sprague Dawley
[20] = tested on: Rat; experiment: concentration in plasma after dosing; conditions: dosed: Fluorotelomer alcohol 8+2, 80 mg/kg, oral, Female, Harlan Sprague Dawley; remark: listed apart in the source
[21] = tested on: Rat; experiment: concentration in plasma after dosing; conditions: dosed: Formamide, 300 mg/kg, oral, Female, Harlan Sprague Dawley
[22] = tested on: Rat; experiment: concentration in plasma after dosing; conditions: dosed: Formamide, 600 mg/kg, oral, Male, F344
[23] = tested on: Rat; experiment: concentration in plasma after dosing; conditions: dosed: Formamide, 90 mg/kg, iv, Male, Harlan Sprague Dawley
[24] = tested on: Rat; experiment: concentration in plasma after dosing; conditions: dosed: Formamide, 90 mg/kg, iv, Male, Harlan Sprague Dawley; remark: listed apart in the source
[25] = tested on: Rat; experiment: concentration in plasma after dosing; conditions: dosed: Formamide, 300 mg/kg, oral, Female, F344
[26] = tested on: Rat; experiment: concentration in plasma after dosing; conditions: dosed: Formamide, 300 mg/kg, oral, Female, Harlan Sprague Dawley; remark: listed apart in the source
[27] = tested on: Rat; experiment: concentration in plasma after dosing; conditions: dosed: Formamide, 36 mg/kg, oral, Female, Harlan Sprague Dawley
[28] = tested on: Rat; experiment: concentration in plasma after dosing; conditions: dosed: Formamide, 36 mg/kg, oral, Female, Harlan Sprague Dawley; remark: listed apart in the source
[29] = tested on: Rat; experiment: concentration in plasma after dosing; conditions: dosed: Formamide, 600 mg/kg, oral, Male, Harlan Sprague Dawley
[30] = tested on: Rat; experiment: concentration in plasma after dosing; conditions: dosed: Formamide, 36 mg/kg, oral, Male, Harlan Sprague Dawley
[31] = tested on: Rat; experiment: concentration in plasma after dosing; conditions: dosed: Pyridine, 5 mg/kg, iv, Female, F344
[32] = tested on: Rat; experiment: concentration in plasma after dosing; conditions: dosed: Pyridine, 5 mg/kg, oral, Female, F344
[33] = tested on: Rat; experiment: concentration in plasma after dosing; conditions: 4 h; dosed: Pyridine; 50 mg/kg; oral; Female; F344
[34] = tested on: Rat; experiment: concentration in plasma after dosing; conditions: 20 min; dosed: Pyridine; 50 mg/kg; oral; Female; F344
[35] = tested on: Rat; experiment: concentration in plasma after dosing; conditions: 0.25 h; dosed: Pyridine; 10 mg/kg; iv; Male; Harlan Sprague Dawley
[36] = tested on: Rat; experiment: concentration in plasma after dosing; conditions: 4 h; dosed: Pyridine; 50 mg/kg; oral; Female; F344; remark: listed apart in the source
[37] = tested on: Rat; experiment: concentration in plasma after dosing; conditions: 20 min; dosed: Pyridine; 10 mg/kg; iv; Male; Harlan Sprague Dawley

## CC1CCCO1 (centres undefined) [2-Methyltetrahydrofuran]
[1]
  concentration in brain: 0.281 µg/g
[2]
  concentration in brain: 51.9 µg/g
[3]
  concentration in brain: 71.2 µg/g
[4]
  concentration in brain: 1.41 µg/g
[5]
  concentration in brain: 10.2 µg/g
[6]
  concentration in brain: 85.8 µg/g
[7]
  concentration in brain: 33.4 µg/g
[8]
  concentration in plasma: 3840 ng/mL
[9]
  concentration in plasma: 4670 ng/mL
[10]
  concentration in plasma: 9920 ng/mL
[11]
  concentration in plasma: 12800 ng/mL
[12]
  concentration in plasma: 234 ng/mL

## O=C(O)C(Cl)Br (centres undefined) [Bromochloroacetic acid]
[13]; 5 min
  concentration in plasma: 4320 ng/mL
[13]; 3 h
  concentration in plasma: 12300 ng/mL
[14]; 10 min
  concentration in plasma: 5970 ng/mL
[14]; 2 h
  concentration in plasma: 3220 ng/mL

## OCCC(F)(F)C(F)(F)C(F)(F)C(F)(F)C(F)(F)C(F)(F)C(F)(F)C(F)(F)F [Fluorotelomer alcohol 8+2]
[15]
  concentration in plasma: 215 ng/mL
[16]; 5 min
  concentration in plasma: 13.6 ng/mL
[16]; 9 h
  concentration in plasma: 820 ng/mL
[17]
  concentration in plasma: 878 ng/mL
[18]; 5 min
  concentration in plasma: 4.76 ng/mL
[18]; 3 h
  concentration in plasma: 361 ng/mL
[19]
  concentration in plasma: 143 ng/mL
[20]; 5 min
  concentration in plasma: 14.8 ng/mL
[20]; 9 h
  concentration in plasma: 244 ng/mL

## NC=O [Formamide]
[21]; 1.5 h
  concentration in plasma: 245000 ng/mL
[21]; 30 h
  concentration in plasma: 124000 ng/mL
[22]; 8 h
  concentration in plasma: 664000 ng/mL
[22]; 12 h
  concentration in plasma: 642000 ng/mL
[23]; 2 h
  concentration in plasma: 169000 ng/mL
[23]; 96 h
  concentration in plasma: 3200 ng/mL
[24]; 0.25 h
  concentration in plasma: 182000 ng/mL
[24]; 24 h
  concentration in plasma: 28100 ng/mL
[25]; 5 min
  concentration in plasma: 97400 ng/mL
[25]; 2 h
  concentration in plasma: 230000 ng/mL
[26]; 1.5 h
  concentration in plasma: 270000 ng/mL
[26]; 30 h
  concentration in plasma: 106000 ng/mL
[27]; 0.25 h
  concentration in plasma: 28600 ng/mL
[27]; 5 h
  concentration in plasma: 54600 ng/mL
[28]; 1.5 h
  concentration in plasma: 41800 ng/mL
[28]; 30 h
  concentration in plasma: 6900 ng/mL
[29]; 0.25 h
  concentration in plasma: 454000 ng/mL
[29]; 5 h
  concentration in plasma: 816000 ng/mL
[30]; 8 h
  concentration in plasma: 40800 ng/mL
[30]; 12 h
  concentration in plasma: 31200 ng/mL

## c1ccncc1 [Pyridine]
[31]; 0.25 h
  concentration in plasma: 3290 ng/mL
[31]; 6 h
  concentration in plasma: 1840 ng/mL
[32]; 5 min
  concentration in plasma: 1980 ng/mL
[32]; 4 h
  concentration in plasma: 3470 ng/mL
[33]
  concentration in plasma: 16300 ng/mL
[34]
  concentration in plasma: 40900 ng/mL
[35]
  concentration in plasma: 3370 ng/mL
[36]
  concentration in plasma: 17800 ng/mL
[37]
  concentration in plasma: 3170 ng/mL
